Some of the results follow.

The assay deals with PfHDP1 homeodomain (GST-tagged). Nature of the assay: gcPBM binding intensity (ln(normalized median fluorescence intensity)); higher = stronger DNA binding. Put shortly:
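Plasmodium falciparum DNA-binding domains carrying a GST tag were expressed in E. coli and applied for 1 h, at about 25 μg on average, to an Agilent 4 × 180k array. The array held primer-extended double-stranded 36-bp intergenic genomic probes together with negative controls, and binding took place in 1× PBS with 1% milk, 0.2 mg/ml BSA, 0.5% salmon testes DNA and 0.03% Triton X-100. An Alexa488 anti-GST antibody detected bound protein, and the array was scanned at 488 nm. Binding intensity is taken as the highest Masliner-normalised natural-log median intensity across replicate spots of either probe orientation.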
Turning to “TGTATATAATTTATATGTACATATATTTTATTTTGT [XGTACX_site1905]”, the “gcPBM binding intensity (ln)” value was 6.53. Under “AAAAAAAAAAAATAGAAAAAAAAATAAAATAAAAAA [CACACA_negctrl_site562]” stands 5.87. With “TGTTAACCACAAAAATAAAATAAAATAAAAATAATA [XGTACX_negctrl_site535]” the figure was 6.39; with “ATTATGCACGGACACACACACACACCCCTAAAAAAT [CACACA_site5426]”, 10.5. For “TTTCCCATAGGAAAAACACACATATATTATAGATAA [CACACA_site7019]”, the “gcPBM binding intensity (ln)” value stood at 6.38. With “TATGCTATTATATATGTACACACCAATTTATTTATA [CACACA_site3918]” the figure was 6.93; with “TGATAAATATTATGTTGTACTTTCTGCCCTTCACAT [XGTACX_site5168]”, 6.75; with “CACAATGGTTTATATACACACTGTTGCAAATTCTTC [CACACA_site5659]”, 9.32. For “AATATAAACACAAACACACACATATAGATTTATATA [CACACA_site6263]”, the “gcPBM binding intensity (ln)” value turned out to be 6.75. Under “AATATATAAATTGACACACACATATATACCTATATA [CACACA_site4803]” stands 6.59; under “GAGAGAGAAATAAAAAGTACATACATATATATACAT [XGTACX_site2267]”, 6.46; under “TGGAGATTTTTAAAGACACACAGGTAAGAATAATAA [CACACA_site1582]”, 6.57. For “AAAAAAAACAGACACATACACACAAAAATGTTATAA [CACACA_site82]”, the “gcPBM binding intensity (ln)” value stood at 6.37. “ACCATTTTTATGTATAAACACACGTACCCGCACTAA [CACACA_site1604]”: the “gcPBM binding intensity (ln)” value came to 6.6. Under “TTATACCTATATTTAACACACATTTGATAAAGTGCC [CACACA_site6732]” stands 6.36; under “TTGTAGGTAAATATGTGTACGCATTATTATTCTTAA [XGTACX_site216]”, 6.39. Regarding “AAAAAATTTGTTTATTGTACAGAAAGAATTATTATA [XGTACX_site6549]”, the “gcPBM binding intensity (ln)” value came out at 6.52. Under “AACCAATATGTGTATACACACATAAATATAAATATA [CACACA_site7729]” stands 7.09; under “AAAAAAAAAAAAAGGTGTACATAAGTAAATTCATAT [XGTACX_site4206]”, 6.36; under “CTTTTCTTTTTTTTTTGTACATAAAATTATTCCTTA [XGTACX_site3924]”, 6.47. “AATATAGTCACACATACACACATATAGATTTATATA [CACACA_site7223]”: the “gcPBM binding intensity (ln)” value turned out to be 6.87. For the sequence “TTTTGTTGCTCTTTTTTTTTTTTTTTTAACTGTATG [CACACA_negctrl_site1072]”, the “gcPBM binding intensity (ln)” value came out at 7.15. Under “AATATATAAATTAATACATGCACATATAGAAAGGGA [TGCATGCA_site472]” stands 10; under “CTTTTTACTTAATACACACACACACTAGAAAAAAAA [CACACA_site4680]”, 7.16. Under “TATACATATAAATTGTGTACACATATATATATATTT [XGTACX_site7875]” stands 7.06; under “TAAAAGGAAAAAAAAGCACACACAATATTACTTGAA [CACACA_site8831]”, 6.79. With “TATCAAAATTAGTATACACACAAAATTATTCAAATA [CACACA_site2232]” the figure was 6.18.

For “TTTGCTTCCAAAAGTCGTACAAAAAATATTAAATAT [XGTACX_site4171]”, the “gcPBM binding intensity (ln)” value worked out at 6.47.

Regarding “AAAAGATTGCTCCGCATGCACCTCCAAAAGTTCCTT [GTGCAC_site9993]”, the “gcPBM binding intensity (ln)” value turned out to be 9.94.

As to “TACAAAAGCGATACGGCACACATTTCCTGTTTAAAT [CACACA_site2746]”, the “gcPBM binding intensity (ln)” value is 6.57. As to “ATAATAAGCAAACACACACACACAAAAAAAAAAAAA [CACACA_site720]”, the “gcPBM binding intensity (ln)” value amounted to 6.51. With “TTATTTTGTTTTAAAAGTACACACTTTTAATTAGAT [XGTACX_site2271]” the figure was 6.4; with “TATATAAACACGTACACACACATATAGGTATTTATA [CACACA_site7615]”, 6.8; with “ACAGAATACATATACACACATACAAAAAAGTGCATA [CACACA_site987]”, 7.81. Under “TCATACTGTATATTTTGTACTTATATATATATTATA [XGTACX_site6136]” stands 7.04. With “CATTATGTTGTAAATGCACACATACATATACACAGT [CACACA_site8990]” the figure was 9.81; with “AATATTATGTATAACCGTACATTATATATATAATAA [XGTACX_site1594]”, 6.31; with “ATTGTGTTAATGAAATGTACATTTTCTCTACGTTAA [XGTACX_site1322]”, 6.76.

“TCCTACATATTATAGTGTACATTTTCATGTTCATAT [XGTACX_site4308]”: the “gcPBM binding intensity (ln)” value turned out to be 6.65. With “AAGTATTATATATTTTGTACATATATAAAACCACAA [XGTACX_site5508]” the figure was 6.56; with “TTAAACTTGTTTTGGATGCACTATATAATTCATTTT [GTGCAC_site9549]”, 7.2. With “GTGTAAAGGTATTATTGTATTATTCAAAATAAAAAA [CACACA_negctrl_site637]”, the “gcPBM binding intensity (ln)” value is 6.47. Under “ATTAAAATAATTTAATTTCTTAGACACAATTTGTAA [GTGCAC_negctrl_site331]” stands 5.99. For “TCTTAATTTGTTATATGTACATAATATAATTGTATA [XGTACX_site5184]”, the “gcPBM binding intensity (ln)” value turned out to be 6.47. Under “TATTTTGTAATAATTACACACGGAATTATAACAGAA [CACACA_site2355]” stands 6.58; under “ATATATATATTTATATTTATATGTAAATATCAACGT [TGCATGCA_negctrl_site32]”, 8.19; under “TTATATTAATAAAAAGAAAATCATTTTTTCTTTTAT [CACACA_negctrl_site1595]”, 5.83.

Regarding “TATTTATATTTATATACACACATACATATTTATATT [CACACA_site6535]”, the “gcPBM binding intensity (ln)” value is 6.5. With “AATATGTCTATATTTTTTATATGGAAATATTATAAA [GTGCAC_negctrl_site700]” the figure was 6.04; with “CAAAAGGATAGGCACACACACACACCCATATATATA [CACACA_site2199]”, 6.87; with “TTTTTTTTTTTTTTTTTTTTTTTATCTATTATTTAT [XGTACX_negctrl_site496]”, 6.22.

With “AAACAAAAAATTTAAAGTACAAAAATTATGATTGTT [XGTACX_site465]”, the “gcPBM binding intensity (ln)” value was 6.32. Under “AAAAAATTAATATTGACACACATTTTTAAGAATAAT [CACACA_site239]” stands 6.25; under “TATATTAATAATAAGTGTACATATATATATATTTTT [XGTACX_site288]”, 6.57; under “AATATATAGAGAGATATGCACACTGTATGAATGCAC [CACACA_site2677]”, 8.81. With “AATGAGAAATATAATTGTACATATATTTATTTTCAT [XGTACX_site3669]” the figure was 6.23. Under “ATTTGTAAAAAATTCATACACACGTCTTATTTTTAA [CACACA_site1390]” stands 6.32; under “TATTTTTTCTTTCATTGTACTTTTTTTTTGTTTTGT [XGTACX_site4081]”, 6.8; under “AATACTATTATTATTGCACACTTATTATCCCTCGGA [CACACA_site4262]”, 10.2. Consider “TATAAAAATATTTCTACACACATTAATATATATATA [CACACA_site1150]”, for which the “gcPBM binding intensity (ln)” value is 8.41. On to “TTTTTATTTTTTGTCTGTACATATATAAATTTATTA [XGTACX_site1525]”, for which the “gcPBM binding intensity (ln)” value worked out at 6.94. With “GATATAAGGGTATGAAGTACATAAATATTTTATGCT [XGTACX_site1886]” the figure was 6.34. With “TATGCACGCGAACACACACACACAACTAAAAAATAA [CACACA_site7251]” the figure was 8.9. Under “ATACATATATAAATATGTACACACATATGTATGATC [XGTACX_site8219]” stands 6.46; under “AAAAAAAAAAAAAAAACACACATACACCCAGACACA [CACACA_site5807]”, 6.82; under “GGAAACCCTCCCAAATGTACTTTTATAAAAAAATAC [XGTACX_site5502]”, 6.98.

Take “ATATAAGTACATATAACACACATATATTATAAGTAT [CACACA_site2647]”: the “gcPBM binding intensity (ln)” value came out at 6.52. With “TTTGCCATAAAACACACACACATGTAAACCCCCTTT [CACACA_site1646]” the figure was 7.33; with “TATACTCAGAAACACACACACACACCCAAAAAAAAA [CACACA_site4434]”, 6.8. Regarding “TACGCGAAATGAATATGTACATATATGAGGGCATAT [XGTACX_site4293]”, the “gcPBM binding intensity (ln)” value turned out to be 6.92. For “TTTATATAAGGACATGCATGCTATTATTAAATATAT [TGCATGCA_site1011]”, the “gcPBM binding intensity (ln)” value was determined as 6.47. Under “TAATATATAAATATATGTACATAATAAATAGGATAT [XGTACX_site3661]” stands 7.06; under “ACTTCATAGGTTACCTGTACATATAAGGAGTTATCA [XGTACX_site4110]”, 6.6; under ATGTAAGTATAAAATGTGCGCATTGGGAATGAGGAC, 8.29. As to “ACTATTTAAAAATATGGTACACGAAATTCAAGAGAA [XGTACX_site5903]”, the “gcPBM binding intensity (ln)” value turned out to be 6.9. Under “ATGAATTAACCTAATCGTACAATAAATATTATTATA [XGTACX_site596]” stands 6.11; under “ATATATATATATGTATGTATATATATATGTTTGATT [XGTACX_negctrl_site62]”, 8.94. Take TTGTTTATGTGAGAAGTGCATTTTTTCGTTCATGTA: the “gcPBM binding intensity (ln)” value is 7.93.

In the case of “AAGTTTTATATTTATTAAATTTTTTTTTTTCCTTTT [XGTACX_negctrl_site184]”, the “gcPBM binding intensity (ln)” value was found to be 5.85. With “ATATGTTTAAAAATATGTACGTATTATATATTCTAT [XGTACX_site1358]” the figure was 6.38. Under “TTTTTTATTTTGTTGAAGCAATGAAAATGAATGAAA [TGCATGCA_negctrl_site495]” stands 6.6. As for “TCTTTTTTTTTTTTTTTTTTTTTTTTTTTTTTTTTT [GTGCAC_negctrl_site18]”, the “gcPBM binding intensity (ln)” value came to 7.39. Under “ATAAAACCAACATAGAGTACAGATCGACTATGTTTC [XGTACX_site4329]” stands 6.25; under “TTTTCTTTTTAAATTACACACACATATATATATGTA [CACACA_site9172]”, 6.99; under “ATTTTAATGACATATACACACAAAGGTTCATAACAA [CACACA_site5664]”, 6.51. With “TGTAGATATTATATATGTACGCATATGAAATATATA [XGTACX_site1586]” the figure was 6.35; with “GTAATATCAATATAAAGTACACACTATAGTATGTAT [XGTACX_site4714]”, 6.4; with “TAATTATATAAATATTGTACAAAAAAAATATATATA [XGTACX_site3137]”, 6.8.

For the origin of these results see the supplement of paper PMC11417369.
